This note sets out measurements from the RNAGym collection of RNA variant scans (doi:10.7554/elife.90254).

Read counts are not given, so values of variants with three or more changes are uncertain.

To fix the notation:
B1: LINE1-mini (parent)
chain: GGCAGAGCUCAACACAGCGUGGCAAAGUGGCUGUGGCUAGACUGCC

This data set covers variants of B1. The experiment in a line: self-cleavage, relative activity (ratio to wild type); higher = more cleavage; in vitro, sequencing; the parent is a self-cleaving ribozyme.
For G17C G29A G33U C45U, the self-cleavage amounted to 0.06. The result for G17U G19C G29A A39U reads 0.13; that for C18A A25C C31A U38G, 0.01.

As for G17C G21U G22A C45G, the self-cleavage was 0.05.

Consider G17U A39U U43A, for which the self-cleavage came out at 0.02. In the case of G17C G29U G30A C37G, the self-cleavage is 0.06. The result for G17C U20A A25C C45U reads 0.04; that for G17U A41C C46A, 0.01. The value for C18A G19C U38A G40C was 0.01; that for C18A U20G G29U G35A U38C C45U was 0.01. The result for G17C G29C U38C reads 0.05; that for G17U G22C U28C G29U G44A, 0.13; that for G17U G30U A39G, 0.03. For G17U A25C A26C, the self-cleavage stood at 0.1. The result for G17U A41C G44A reads 0.02; that for G17U A24G G27C G33C, 0.02. The result for C18A A25U U32A U43C reads 0.03; that for G17U G30C U34G A39C C46U, 0.02; that for C18A G19C U38G A41G, 0.02.

Turning to C18A G19A C31A G35U, the self-cleavage was found to be 0.02. The value for G17C G30U C37G was 0.06; that for G17U G40U A41C C45G was 0. The result for C18A C37U C42G reads 0.04; that for C18A G19C C23A, 1.07; that for G17U G19U G27A, 0.05. The result for G17U U34G G35U C46G reads 0.02. With C18A A26C G27U, the self-cleavage is 0.43.

As for G17U A26U U43A, the self-cleavage came to 0.05. The result for G17C C31G G35U C37A reads 0.03; that for C18A U20G C23U U32A, 0.02; that for G17U C18U U20C A24G G30U, 0.02. As to G17C G22C A25G, the self-cleavage was 0.18. The result for G17U G29U C46G reads 0.77; that for G17C U20G U34C, 0.06; that for G17U C18U A24U, 0.35. The value for C18A G21U A39G was 0.04; that for G17C C18U G22C G35C was 0.07.

For C18A G22A G30U G44C, the self-cleavage came out at 0.08. On to G17C C23A U34G, for which the self-cleavage stood at 0.01.

G17U U28C U43A G44U: the self-cleavage came to 0.04. The value for C18A C37A U38C G40A was 0.09; that for G17C G22A A24U A39G was 0.15. The value for G17U U38C C45G was 0.05; that for C18A G27C G44C was 0.03.

For the variant G17U C18A G22A G36U, the self-cleavage is 0.08. The result for G17U U20G C45U reads 0.02; that for G17C U20G G29U G44U C45A, 0.04. Regarding C18A U28C G40U, the self-cleavage was found to be 0.04. On to G17U C18U G44A, for which the self-cleavage was 0.01. The value for C18A U28C G29A G40C was 0.05; that for G17U G27U A41C C46U was 0.03; that for G17C G30A C31A G35U G44A was 0.02.

G17U C18A G35A C42U: the self-cleavage turned out to be 0.03. Consider G17C G22A G40A G44U, for which the self-cleavage worked out at 0.03. The value for G17C G29C C46U was 0.2; that for G17U G21U C42A was 0.05; that for G17U G35A C45U was 0.01. The result for G17C G30U G36A reads 0.05; that for C18A G40U C45G, 0.03; that for G17U G19A C37U, 0.04. The value for G17C G21A C23A was 0.8; that for C18A C31A G40U was 0.03; that for G17C G21A G22U U32G G40C was 0.

For the variant C18A A25G G29A A39G G40U C42U G44U, the self-cleavage amounted to 0.03. Consider C18A A24G G44U, for which the self-cleavage was 0.03. The value for C18A G22C G33A was 0.03. As for C18A G22C G33C, the self-cleavage stood at 0.02.

For G17U C18A G27A U28A U38G C42A, the self-cleavage came to 0.09. The result for G17C G33U C42A reads 0.06; that for C18A C37G U43C, 0.02. The value for G17U U28A C42U was 0.

Take G17U G22C C23A U38G A41C: the self-cleavage is 0.01. The value for C18A U28A A39G was 0.02; that for G17U G22U G29A was 0.5; that for G17U U20A G22U G35U was 0.02. As to G17U G29A C37U A41G C45A, the self-cleavage is 0. The result for G17U C31A G40C reads 0.15; that for G17U C23A G35C A39C, 0.01; that for C18A C23U G30A U32A C45U, 0.06. The value for G17C C31U U34A was 0.01; that for G17C G33A A39U was 0.1; that for G17U G19A A25U G30A U38G was 0. For the variant G17U C31U U32C, the self-cleavage was determined as 0.04. The result for G17U C31U U32A reads 0.15. The value for G17C G27A C31A was 0.71; that for G17U C18A A24U A26U G27C G40U was 0.05; that for G17U U28G G33A G35C was 0.03.

C18A G33A C42A: the self-cleavage was found to be 0.02. The result for G17C U20G C23U U32G G33C reads 0.05; that for C18A G19C G27U C46A, 0.16; that for G17U A26G G29U, 0.81.

For the variant G17U U20C U32G U38C G40A, the self-cleavage is 0.

Consider G17U A25C G27C U43C, for which the self-cleavage is 0.04.

With G17U C18G C45A, the self-cleavage was 0.03.

With G17C G27A U28A, the self-cleavage turned out to be 0.23. The result for G17U G22A A26C G35C reads 0.12; that for C18A U20A U34A C42A, 0.17. The result for G17U G27A G33U U43G C45A reads 0.06. The value for C18A A26G G33C A39U G44U was 0.02; that for G17U G22A C31A G44C C46G was 0.03; that for G17U G21U A25C G30U was 0.04. Take C18A G21A G22U A25G G27A A41G: the self-cleavage was determined as 0.16. The result for G17U C18A G36U reads 0.02; that for C18A C31G C45G, 0.01; that for G17U G19U A26U G30U, 0.06. The value for G17C G30U G40U was 0.04. The value for G17U G30C C31A C37A was 0.04; that for G17U U20G U32A U38A was 0.03. As to G17C U28C C37A, the self-cleavage was 0. C18A G35U C37A: the self-cleavage worked out at 0. The result for G17C G29A C45G reads 0.08; that for C18A G29A U34G, 0.22. The value for G17U C18A G22A C45G was 0.07; that for G17C G30A C46U was 0.06.

For the variant G17C C37A C42A, the self-cleavage stood at 0.01. Turning to G17U U34G U38G, the self-cleavage is 0.08. The value for C18A U32A U43G C45A was 0.02; that for G17U G19A U20C A26U U32C was 0.02; that for C18A G19U U38A was 0.29.

With G17U G27C C31G G33C, the self-cleavage came to 0.03.

Turning to C18A G27C C31G C46A, the self-cleavage worked out at 0.01. For C18A C23G C31U C37G U43A, the self-cleavage came to 0.01. The value for G17C U20C G21U G27C U32C G40U C42U was 0.03; that for C18A G27A C37A was 0.03; that for C18A U20A U34A was 0.04. The value for C18A U20G A41U was 0.43; that for G17C C23G C37U was 0.06; that for G17U U20C A25G G33C was 0.09. The result for C18A G27A U32A reads 0.03. In the case of C18A C23A U28G U34G, the self-cleavage worked out at 0.07. The result for G17U G22A C31G reads 0.76. The value for C18A G21C A41U was 0.42; that for C18A G19C A26C G36U C37U A41G was 0.02; that for G17U C18A A39U was 0.11. The value for G17U G22A C23A was 0.45. With C18A G21U C23G G27U C37A, the self-cleavage was determined as 0.14.

With C18A G22U G44C, the self-cleavage came to 0.25.

Regarding C18A G27U U32G, the self-cleavage is 0.03. The value for G17C G30C C45A was 0.06; that for G17C G35A G40U was 0.02; that for C18A G22U G27A C31U U43G was 0.01. The result for G17U C18A U32G U43A reads 0.04. With G17U C23U G29U A39G C42G, the self-cleavage was 0.09. The result for G17U G22A C23G A41G G44U reads 0.01; that for G17U U20C G40U, 0.08; that for C18A G33C C42U, 0.05. The value for C18A A39G G40C was 0.02; that for G17U U20A G30C was 0.68; that for C18A A24C U28A was 0.18.

Take G17U U38G A41G: the self-cleavage came out at 0.01. For G17U G22C U34A G40U, the self-cleavage is 0.01. As to C18A A24C G29U G36U, the self-cleavage stood at 0.13. Consider G17C U28C G40A, for which the self-cleavage was 0.05. The value for G17C G21A C31U was 0.11; that for G17C G27U C37U was 0.04. The result for G17U U32C G36C A39C G40U reads 0.05; that for G17U C18U U28C, 0.13; that for G17C G30U C31U C37A, 0.14. The result for G17U C31U G40U C46A reads 0.02; that for G17U C18U A26C G33A, 0.09. Consider C18A G33A A41C, for which the self-cleavage came out at 0.03. The result for C18A A25C C31U reads 0.06; that for G17U C42A C45G, 0.03; that for G17U G33U G40U A41C C46G, 0.02. G17U C23U G30U G36C U38G: the self-cleavage was found to be 0.02. The result for G17U G29C G40U reads 0.07. The result for G17U G19C A26C C37U reads 0.05.
